In the RNAGym collection of RNA variant scans (doi:10.1093/nar/gkz1192):
Read counts are not given, so values of variants with three or more changes are uncertain.

B1: CPEB3 Ribozyme (parent)
chain: UAACAGGGGGCCACAGCAGAAGCGUUCACGUCGCAGCCCCUGUCAGAUUCUGGUGAAUCUGCGAAUUCUGCUGUAUAUCUC

Variants of: B1
Assay: self-cleavage, relative activity (ratio to wild type); higher = more cleavage; in vitro, sequencing
Summary of the method: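 After error-prone PCR and barcoding, CPEB3 ribozyme mutant libraries were transcribed with T7 RNA polymerase at 37°C for 5 hours, then given 15 min with DNase I before an EDTA stop, and they cleaved during both steps. Reverse transcription with template switching preceded Illumina sequencing. Relative activity divides a variant's cleaved/total read fraction by the unmutated ribozyme's. At least 5 reads were required per variant, and three batches were averaged.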

Variant | self-cleavage
U1A A20C C37U A45G A56G A57G U72A | 0.13
U1A A20G A45G U51C A57G | 0.23
U1A A20G A57G U69A | 0.27
U1A A20G C50G U51C | 0
U1A A20G U25A U31A C39U | 0.06
U1A A20G U25C C37U U43C | 0.16
U1A A20G U26C A28C U60C | 0.08
U1A A20U U26G | 0.34
U1A A20U U41C A45U U72A U78C | 0.09
U1A A20U U74C A75U U78C | 0.44
U1A A21C G30A U41C A47G U54C U67A | 0.16
U1A A21G A28C U78A | 0.35
U1A A21G A56G | 0.51
U1A A21G A64G | 0.36
U1A A21G C38U | 0.41
U1A A21G C39U U49C | 0.04
U1A A21G G30C A56G A57G | 0.16
U1A A21G U25C A28G U74C | 0.47
U1A A21G U25C A45U U69A | 0.07
U1A A21G U26C A35U | 0.21
U1A A21G U26C G42A G55A C62U | 0.07
U1A A21G U26G | 0.35
U1A A21G U60G | 0.26
U1A A21U A56G U78C | 0.19

Variant | self-cleavage
U1A A21U A65G | 0.19
U1A A28C U49C A64G | 0.29
U1A A28G A47G U54C G63C A77G | 0.14
U1A A28G A56U U58G | 0.09
U1A A28G A64G | 0.47
U1A A28G A75G | 0.29
U1A A28G C44U U54A | 0.27
U1A A28G U48C A57G A65G | 0.49
U1A A28G U58G U72C | 0.25
U1A A28U G33A A47G U51A A57G C81G | 0.08
U1A A28U G33U | 0.15
U1A A28U U49A U51A | 0.16
U1A A28U U54C | 0.8
U1A A28U U54C A75G | 0.6
U1A A35G A45U U51A | 1.12
U1A A35G A57G | 1.29
U1A A35G U72A | 1.18
U1A A35G U76C | 1.26
U1A A35U C39A U49G | 0.08
U1A A35U U43C U69C | 0.25
U1A A35U U78C | 0.49
U1A A45C A47G G55U U72C | 0.16
U1A A45G A56U U58A A77U U80C | 0.08
U1A A45G A57C U67C | 0.13

Variant | self-cleavage
U1A A45U U60A | 0.65
U1A A47G U54C | 0.79
U1A A47G U58C | 1.12
U1A A56G A65G | 0.14
U1A A57G U66C U67A C68U | 0.3
U1A A64U U66C U69C U72C | 0.15
U1A C4A A15C C29U A57U U60C U72C | 0.12
U1A C4A C11U U25C C32A U80A | 0.09
U1A C4U A13U C34G | 0.31
U1A C4U A15G G16A A56U | 0.09
U1A C11A U25C U60C U80C | 0.23
U1A C11G A13U A21G U66C U76C | 0.38
U1A C11U U67A U72C | 0.39
U1A C12A C14A U31A U69A | 0.31
U1A C12U C32A U74C | 0.2
U1A C12U G24C A28U G53U U54C G73C | 0.07
U1A C14U U25A U60A U69C | 0.21
U1A C17A U43C A47G | 0.08
U1A C17G U25C U80C | 0.07
U1A C17U U25C U49A A57G | 0.22
U1A C23U G30C A45U U60C G61C | 0.13
U1A C27U U31A U72A U74C A75G | 0.08
U1A C27U U51C | 0.2
U1A C29U C40U U67C U80C | 0.07

Variant | self-cleavage
U1A C32A U72C | 0.09
U1A C32U U58A G63U U72C | 0.08
U1A C32U U72A U74C | 0.11
U1A C38A U54C G63C A65G | 0.07
U1A C38U A47C | 0.22
U1A C38U U72G | 0.82
U1A C44U U54C | 0.29
U1A C59U A77U | 0.98
U1A G6A A18C A35U U54C U69G U72C | 0.12
U1A G6A A20G U25C U69A U72C C81A | 0.06
U1A G6A A21U U31C C81A | 0.07
U1A G6A U25C U60C A64U G73A | 0.09
U1A G6A U26C C40U | 0.23
U1A G6A U58C U80C | 0.3
U1A G6C A21G A45G U69A U78C | 0.09
U1A G7A A18G A28U U58G A64G | 0.04
U1A G7A C32U U43C U80C | 0
U1A G8A A28C U51C U72C | 0.16
U1A G8A C32A U78C | 0.22
U1A G8U A20U A35G U72A | 0.13
U1A G8U A21G G30A G63C U78C | 0.05
U1A G9A U25C U60C | 0.13
U1A G9A U26C | 0.44
U1A G9C A35U G63U | 0.22

Variant | self-cleavage
U1A G9C A64G U66C | 0.13
U1A G9U G16A U25C | 0.06
U1A G9U U26A U48C U69C U72C | 0.1
U1A G10A G24A C37G A77G | 0.05
U1A G10U U41C U69A U80C | 0.17
U1A G16A G19U A56U | 0.05
U1A G16A U25C U41A U60C A64G U72C | 0.1
U1A G19A A21G G30A C50U | 0.05
U1A G19A A35G U48A U78A | 0.11
U1A G19A G53A A77U | 0.16
U1A G19A U41C G42U A56G U60A | 0.12
U1A G19U A35G U43A U49C | 0.24
U1A G19U U25C U80A | 0.08
U1A G24A U26A U76A | 0.25
U1A G24A U41A A45G | 0.08
U1A G33A G36U U60C G63U | 0.07
U1A G33C A45G G46C | 0.06
U1A G36A U69C | 0.12
U1A G36C C50U A56U C81U | 0.11
U1A G36U C40U U43C C44U U60C U67C | 0.07
U1A G36U U60A | 0.03
U1A G53A A77U | 1.15
U1A U25A A28U U54C | 0.25
U1A U25C A28G G30C C34G U41C U80A | 0.22

Variant | self-cleavage
U1A U25C A57G U74C | 0.24
U1A U25C U26A A45G U51C A75U | 0.1
U1A U25C U41A U72A A77G | 0.09
U1A U26A A35G A45G C62U | 0.24
U1A U26C A35C A57G C62U U72C | 0.07
U1A U26C A56U U72A | 0.15
U1A U26C G30U U48C G53A | 0.17
U1A U26C G42A U51A G52U | 0.11
U1A U26C U31A A35G A45G A47G U76C | 0.1
U1A U26C U49C U58A | 0.06
U1A U26C U60A | 0.35
U1A U26C U74A | 0.81
U1A U26G A64G | 0.22
U1A U31A A57G U67C | 0.14
U1A U31A G53A U60A | 0.17
U1A U31A U43A U48A G52A | 0.33
U1A U31C A35G U48C U54C C71G | 0.31
U1A U31C G36A A45G U69A | 0.19
U1A U41A A45C A47G U54C U72C | 0.17
U1A U41A A57G | 0.46
U1A U41A U43C A56G A57G | 0.22
U1A U41C U43A U48A U76C | 0.22
U1A U41C U48C | 0.62
U1A U41C U54C U78C | 0.89

Variant | self-cleavage
U1A U43A U54C U69C U72A | 0.26
U1A U43C A45G C71A | 0.12
U1A U43C A57G U69C | 0.12
U1A U43G U48C U60C U72C | 0.23
U1A U43G U60C G63A | 0.09
U1A U49A U54C U69C | 0.15
U1A U49A U58C U78C | 0.29
U1A U51A A57G A64G | 0.45
U1A U51A A57G A75G | 0.39
U1A U51A A64U | 0.26
U1A U51C G55A U66C | 0.25
U1A U51C U54A | 1.14
U1A U51C U76C U80C | 0.67
U1A U51G U67C U69A | 0.23
U1A U54A U80C | 1.12
U1A U54C U78A | 0.94
U1A U54C U80A | 0.92
U1A U58C U60A U66C U76A | 0.18
U1A U60A A64G U69C | 0.21
U1A U60C U72A | 0.18
U1A U60C U80A | 0.59
U1A U66C U78C | 0.21
U1A U74C A77G | 1.19
